The text below walks through data of publication PMC11995724, “Antibiotic target discovery by integrated phenotypic and activity-based profiling of electrophilic fragments” (Cell chemical biology, 2025).

Structures are written as SMILES. In all, about 3,200 compounds went through this assay and about 110 (3.4%) showed an effect of 50% or more. This is one part of the list.

The test system of this test is T1, V. cholerae SAD30.
T1 construct: SAD30
Also on record: species or system S. aureus MSSA476 (TSB) or V. cholerae SAD30 (LB); 384-well bacterial growth screen at 25 uM, OD600 relative to DMSO control. As to conditions: relative growth, OD600, LB; 25 µM; inhibitor.
For `C=CC(=O)NCc1nncn1-c1ccccc1` [1-G07, N-[(4-phenyl-4H-1,2,4-triazol-3-yl)methyl]prop-2-enamide], the “% of control remaining” value is 92.6756%. On to `C=CC(=O)Nc1ccc(C(=O)N2CCC[C@@H]2C(=O)OC)cc1` [2-E21, methyl (2R)-1-[4-(prop-2-enamido)benzoyl]pyrrolidine-2-carboxylate], for which the “% of control remaining” value worked out at 99.9228%. For the compound `Cc1ccc(C=C(C#N)C(=O)Nc2c(Cl)cccc2Cl)o1` [9-N21, 2-cyano-N-(2,6-dichlorophenyl)-3-(5-methylfuran-2-yl)prop-2-enamide], the “% of control remaining” value was 79.3338%. Regarding `O=C(CCl)c1cscn1` [10-L08, 2-chloro-1-(1,3-thiazol-4-yl)ethan-1-one], the “% of control remaining” value came out at 0%. As for `C=CC(=O)Nc1ccc(C(=O)N2CCCC2C(=O)NC2CC2)cc1` (stereo not drawn) [2-I21, N-cyclopropyl-1-[4-(prop-2-enamido)benzoyl]pyrrolidine-2-carboxamide], the “% of control remaining” value worked out at 105.79%.

In the case of `CC(C)NC(=O)C(C#N)=Cc1ccccc1OC(C)C` [9-C15, 2-cyano-N-(propan-2-yl)-3-[2-(propan-2-yloxy)phenyl]prop-2-enamide], the “% of control remaining” value stood at 83.5486%. For the compound `C=CC(=O)N(Cc1cn(CC)nc1C)C1CC1` [2-D13, N-cyclopropyl-N-[(1-ethyl-3-methyl-1H-pyrazol-4-yl)methyl]prop-2-enamide], the “% of control remaining” value is on record as 91.5854%. `C=CC(=O)N1CCC(C(=O)N2CCC(OC)(C(F)(F)F)CC2)CC1` [3-E08, 1-{4-[4-methoxy-4-(trifluoromethyl)piperidine-1-carbonyl]piperidin-1-yl}prop-2-en-1-one]: the “% of control remaining” value worked out at 101.088%.

Take `CC(C)NC(=O)C(C#N)=Cc1cccc(F)c1F` [9-J20, 2-cyano-3-(2,3-difluorophenyl)-N-(propan-2-yl)prop-2-enamide]: the “% of control remaining” value amounted to 89.8029%. Turning to `COc1cc(C=C(C#N)C(=O)NC(C)C)cc(OC)c1` [8-F15, 2-cyano-3-(3,5-dimethoxyphenyl)-N-(propan-2-yl)prop-2-enamide], the “% of control remaining” value turned out to be 73.3515%. As to `O=C(CCl)NC1CCN(C(=O)COc2ccccc2)C1` (stereo not drawn) [7-L03, 2-chloro-N-[1-(2-phenoxyacetyl)pyrrolidin-3-yl]acetamide], the “% of control remaining” value came out at 100.446%. In the case of `N#CC(=Cc1ccccc1[N+](=O)[O-])C(=O)Nc1ccc2c(c1)OCCO2` [9-O20, 2-cyano-N-(2,3-dihydro-1,4-benzodioxin-6-yl)-3-(2-nitrophenyl)prop-2-enamide], the “% of control remaining” value stood at 84.5003%. For the compound `CC(Cl)C(=O)NCC(c1ccccc1)c1nnc[nH]1` (stereo not drawn) [7-G15, 2-chloro-N-[2-phenyl-2-(4H-1,2,4-triazol-3-yl)ethyl]propanamide], the “% of control remaining” value is 78.6387%. For the compound `C=CC(=O)N(C)CC(=O)Nc1ccc(C)c(S(=O)(=O)N(C)C)c1` [3-G04, N-({[3-(dimethylsulfamoyl)-4-methylphenyl]carbamoyl}methyl)-N-methylprop-2-enamide], the “% of control remaining” value is reported as 98.265%.

Take `COc1ccc(C2CCCN2C(=O)CCl)cc1OC` (stereo not drawn) [6-M03, 2-chloro-1-[2-(3,4-dimethoxyphenyl)pyrrolidin-1-yl]ethan-1-one]: the “% of control remaining” value is 100.256%. For the compound `CC(Cl)C(=O)c1ccc(NC(=O)C(C)(C)C)cc1` (stereo not drawn) [10-M06, N-[4-(2-chloropropanoyl)phenyl]-2,2-dimethylpropanamide], the “% of control remaining” value was found to be 98.9675%. For the compound `N#CC(=Cc1cccc(F)c1)C(=O)Nc1ccc(SC(F)F)cc1` [9-N17, 2-cyano-N-{4-[(difluoromethyl)sulfanyl]phenyl}-3-(3-fluorophenyl)prop-2-enamide], the “% of control remaining” value was 67.3691%. `CC(Cl)C(=O)c1ccc(NS(C)(=O)=O)cc1` (stereo not drawn) [10-A08, N-[4-(2-chloropropanoyl)phenyl]methanesulfonamide]: the “% of control remaining” value was determined as 98.4999%. As to `CCc1nocc1CN(C)C(=O)CCl` [5-B11, 2-chloro-N-[(3-ethyl-1,2-oxazol-4-yl)methyl]-N-methylacetamide], the “% of control remaining” value turned out to be 90.6168%. `C=CC(=O)N(C)Cc1cccc(Cl)c1` [2-G09, N-[(3-chlorophenyl)methyl]-N-methylprop-2-enamide]: the “% of control remaining” value is reported as 91.1223%. `C=CC(=O)NCC1CSCCS1` (stereo not drawn) [1-K07, N-[(1,4-dithian-2-yl)methyl]prop-2-enamide]: the “% of control remaining” value is 89.6861%. With `CCCn1c(C)cc(C=C(C#N)C(=O)N2CCCCC2)c1C` [9-D11, 3-(2,5-dimethyl-1-propyl-1H-pyrrol-3-yl)-2-(piperidine-1-carbonyl)prop-2-enenitrile], the “% of control remaining” value is 57.308%. Turning to `COc1cc(NC(=O)CCl)c(Cl)cc1C(=O)O` [4-M17, 5-chloro-4-(2-chloroacetamido)-2-methoxybenzoic acid], the “% of control remaining” value worked out at 98.857%.

In the case of `C=CC(=O)N(Cc1cn(C2CCC2)nn1)c1ccc(F)cc1` [1-G09, N-[(1-cyclobutyl-1H-1,2,3-triazol-4-yl)methyl]-N-(4-fluorophenyl)prop-2-enamide], the “% of control remaining” value was determined as 88.1913%. For `C=CC(=O)N1CC(c2cc(CO)on2)C1` [1-K20, 1-{3-[5-(hydroxymethyl)-1,2-oxazol-3-yl]azetidin-1-yl}prop-2-en-1-one] the value was 100.299%.

Regarding `C=CC(=O)N1CCC(C(=O)N(C)C2CCCc3c2cnn3C)CC1` (stereo not drawn) [2-P12, N-methyl-N-(1-methyl-4,5,6,7-tetrahydro-1H-indazol-4-yl)-1-(prop-2-enoyl)piperidine-4-carboxamide], the “% of control remaining” value was 97.2981%. Consider `CC(Cl)C(=O)NCc1cc2sccc2s1` (stereo not drawn) [6-B07, 2-chloro-N-({thieno[3,2-b]thiophen-2-yl}methyl)propanamide], for which the “% of control remaining” value was 91.4589%.

For the compound `CC(Cl)C(=O)N1CC(S(=O)(=O)c2ccccc2F)C1` (stereo not drawn) [7-M15, 2-chloro-1-[3-(2-fluorobenzenesulfonyl)azetidin-1-yl]propan-1-one], the “% of control remaining” value is 82.075%. The figure for `CC(Cl)C(=O)N1CCCN(C)c2cc(F)ccc21` (stereo not drawn) [6-N16, 2-chloro-1-(7-fluoro-5-methyl-2,3,4,5-tetrahydro-1H-1,5-benzodiazepin-1-yl)propan-1-one] is 82.8135%; for `C=CC(=O)N(C)CC(=O)NCc1c(O)nnc(C)c1C` [2-I20, N-({[(3-hydroxy-5,6-dimethylpyridazin-4-yl)methyl]carbamoyl}methyl)-N-methylprop-2-enamide] it is 95.9085%; for `Cc1c(CN(CC2CC=CCC2)C(=O)CCl)cnn1C` (stereo not drawn) [5-C14, 2-chloro-N-[(cyclohex-3-en-1-yl)methyl]-N-[(1,5-dimethyl-1H-pyrazol-4-yl)methyl]acetamide] it is 92.9705%.

In the case of `C=CC(=O)N1CCC(C(=O)NCc2ncccc2OC)CC1` [3-H05, N-[(3-methoxypyridin-2-yl)methyl]-1-(prop-2-enoyl)piperidine-4-carboxamide], the “% of control remaining” value was 97.03%. `O=C(O)C1CCN(C(=O)CCl)CC1` [6-O11, 1-(2-chloroacetyl)piperidine-4-carboxylic acid]: the “% of control remaining” value is 91.0039%. For `C=CC(=O)Nc1ccc2c(c1)OCCCO2` [1-G20, N-(3,4-dihydro-2H-1,5-benzodioxepin-7-yl)prop-2-enamide] the value was 89.6861%; for `Cc1ccc(NC(=O)NC(=O)C(C)Cl)c(C)c1` (stereo not drawn) [6-J04, 3-(2-chloropropanoyl)-1-(2,4-dimethylphenyl)urea], 87.2121%. As to `C=CC(=O)N1CCC(C2CCOC2)C1` (stereo not drawn) [1-H06, 1-[3-(oxolan-3-yl)pyrrolidin-1-yl]prop-2-en-1-one], the “% of control remaining” value was determined as 121.933%. On to `CCCCNC(=O)C(C#N)=Cc1cccc(Cl)c1Cl` [9-H11, N-butyl-2-cyano-3-(2,3-dichlorophenyl)prop-2-enamide], for which the “% of control remaining” value was 86.1319%. Take `C=CC(=O)NC1CCCCC12CCCC2` (stereo not drawn) [1-F16, N-{spiro[4.5]decan-6-yl}prop-2-enamide]: the “% of control remaining” value is recorded as 65.5054%.

Consider `C=CC(=O)NCc1ccc(F)c(F)c1` [1-C10, N-[(3,4-difluorophenyl)methyl]prop-2-enamide], for which the “% of control remaining” value is given as 88.7892%.

As for `C=CC(=O)N(C)CC(=O)N1CCN(C(=O)c2cccc(O)c2)CC1` [2-J22, N-{2-[4-(3-hydroxybenzoyl)piperazin-1-yl]-2-oxoethyl}-N-methylprop-2-enamide], the “% of control remaining” value is listed as 107.951%. The figure for `COc1cccc(CN(C(=O)CCl)C23CC4CC(CC(C4)C2)C3)c1` [5-E05, N-(adamantan-1-yl)-2-chloro-N-[(3-methoxyphenyl)methyl]acetamide] is 70.4424%; for `Cc1cc(C2CCCN2C(=O)C(C)Cl)no1` (stereo not drawn) [7-D19, 2-chloro-1-[2-(5-methyl-1,2-oxazol-3-yl)pyrrolidin-1-yl]propan-1-one] it is 82.868%; for `CC(Cl)C(=O)N(CCc1ccc(F)cc1F)C(C)C` (stereo not drawn) [6-D18, 2-chloro-N-[2-(2,4-difluorophenyl)ethyl]-N-(propan-2-yl)propanamide] it is 71.5897%.

Take `C=CC(=O)N(Cc1c2c(nn1C)CCOC2)c1cc(C)cc(C)c1` [2-A07, N-(3,5-dimethylphenyl)-N-({2-methyl-2H,4H,6H,7H-pyrano[4,3-c]pyrazol-3-yl}methyl)prop-2-enamide]: the “% of control remaining” value stood at 93.5926%. Take `CCCn1c(N)c(C(=O)CCl)c(=O)n(C)c1=O` [10-H12, 6-amino-5-(2-chloroacetyl)-3-methyl-1-propyl-1,2,3,4-tetrahydropyrimidine-2,4-dione]: the “% of control remaining” value stood at 94.4477%.
